The results in this text go back to article PMC9911399, “Two distinct binding modes provide the RNA-binding protein RbFox with extraordinary sequence specificity”.

Residue numbers refer to the chain shown, from its start. The list shows a part of the results.

T1: RBFOX1 RRM (Homo sapiens, UniProt Q9NWB1 109-208)
T1 sequence: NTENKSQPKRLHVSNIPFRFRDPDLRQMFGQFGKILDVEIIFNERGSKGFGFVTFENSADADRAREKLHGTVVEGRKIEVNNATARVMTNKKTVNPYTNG

B1: AUUACUA (DNA:RNA)
RNA: GGGAGACCGGAAUUCAGAUUGUCCAUUACUAUUAAAUCCCGUCGUAGCCACCA
DNA 1: CAATCTGAATTCCGGTCTCCC
DNA 2: TGGTGGCTACGACGGGATT
B2: GCCCCAC (DNA:RNA)
RNA: B1 RNA with A25G, U26C, U27C, A28C, U30A, A31C
DNA 1: CAATCTGAATTCCGGTCTCCC
DNA 2: TGGTGGCTACGACGGGATT
B3: CUGAUAG (DNA:RNA)
RNA: B1 RNA with A25C, U27G, C29U, U30A, A31G
DNA 1: CAATCTGAATTCCGGTCTCCC
DNA 2: TGGTGGCTACGACGGGATT
B4: UCCCAGC (DNA:RNA)
RNA: GGGAGACCGGAAUUCAGAUUGUCCUCCCAGCUUAAAUCCCGUCGUAGCCACCA
DNA 1: CAATCTGAATTCCGGTCTCCC
DNA 2: TGGTGGCTACGACGGGATT
B5: AGCCCCC (DNA:RNA)
RNA: B4 RNA with U25A, C26G, A29C, G30C
DNA 1: CAATCTGAATTCCGGTCTCCC
DNA 2: TGGTGGCTACGACGGGATT
B6: CGGUGCA (DNA:RNA)
RNA: B1 RNA with A25C, U26G, U27G, A28U, C29G, U30C
DNA 1: CAATCTGAATTCCGGTCTCCC
DNA 2: TGGTGGCTACGACGGGATT
B7: CUGAGGG (DNA:RNA)
RNA: B1 RNA with A25C, U27G, C29G, U30G, A31G
DNA 1: CAATCTGAATTCCGGTCTCCC
DNA 2: TGGTGGCTACGACGGGATT
B8: CAGAUCG (DNA:RNA)
RNA: B1 RNA with A25C, U26A, U27G, C29U, U30C, A31G
DNA 1: CAATCTGAATTCCGGTCTCCC
DNA 2: TGGTGGCTACGACGGGATT
B9: AACACGC (DNA:RNA)
RNA: B1 RNA with U26A, U27C, U30G, A31C
DNA 1: CAATCTGAATTCCGGTCTCCC
DNA 2: TGGTGGCTACGACGGGATT
B10: GUAUCUA (DNA:RNA)
RNA: B1 RNA with A25G, U27A, A28U
DNA 1: CAATCTGAATTCCGGTCTCCC
DNA 2: TGGTGGCTACGACGGGATT
B11: AACUUCA (DNA:RNA)
RNA: B1 RNA with U26A, U27C, A28U, C29U, U30C
DNA 1: CAATCTGAATTCCGGTCTCCC
DNA 2: TGGTGGCTACGACGGGATT
B12: UCUCACG (DNA:RNA)
RNA: B4 RNA with C27U, G30C, C31G
DNA 1: CAATCTGAATTCCGGTCTCCC
DNA 2: TGGTGGCTACGACGGGATT
B13: AAUACCC (DNA:RNA)
RNA: B1 RNA with U26A, U30C, A31C
DNA 1: CAATCTGAATTCCGGTCTCCC
DNA 2: TGGTGGCTACGACGGGATT
B14: AGACCCG (DNA:RNA)
RNA: B1 RNA with U26G, U27A, A28C, U30C, A31G
DNA 1: CAATCTGAATTCCGGTCTCCC
DNA 2: TGGTGGCTACGACGGGATT
B15: GCAGAGU (DNA:RNA)
RNA: B4 RNA with U25G, C27A, C28G, C31U
DNA 1: CAATCTGAATTCCGGTCTCCC
DNA 2: TGGTGGCTACGACGGGATT
B16: CGAACAA (DNA:RNA)
RNA: B1 RNA with A25C, U26G, U27A, U30A
DNA 1: CAATCTGAATTCCGGTCTCCC
DNA 2: TGGTGGCTACGACGGGATT
B17: UGCUCAC (DNA:RNA)
RNA: B4 RNA with C26G, C28U, A29C, G30A
DNA 1: CAATCTGAATTCCGGTCTCCC
DNA 2: TGGTGGCTACGACGGGATT
B18: CACGCAC (DNA:RNA)
RNA: B4 RNA with U25C, C26A, C28G, A29C, G30A
DNA 1: CAATCTGAATTCCGGTCTCCC
DNA 2: TGGTGGCTACGACGGGATT
B19: CUGUCGC (DNA:RNA)
RNA: B1 RNA with A25C, U27G, A28U, U30G, A31C
DNA 1: CAATCTGAATTCCGGTCTCCC
DNA 2: TGGTGGCTACGACGGGATT
B20: GAUUGGU (DNA:RNA)
RNA: B1 RNA with A25G, U26A, A28U, C29G, U30G, A31U
DNA 1: CAATCTGAATTCCGGTCTCCC
DNA 2: TGGTGGCTACGACGGGATT

The test has as its target T1, RBFOX1 RRM. Briefly: EMSA; HiTS-Eq, 1 nM pool, 10 min; buffer printed only for the single-RNA assays: 10 mM Tris pH 7.5, 150 mM NaCl, 3.4 mM EDTA, 0.001% NP-40, 30 C. The conditions noted are these: tags: His6 N-terminal (pET28a); label: 5' 32P. The method in brief:
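A pool of RNA with 7 randomized nucleotides, 5′-radiolabelled and with DNA-annealed flanks, was equilibrated at 1 nM for 10 min in 50 µL with purified RbFox RRM, wild type or mutant, across increasing protein concentrations. Free RNA was separated by 8% native PAGE, excised, reverse-transcribed, barcoded by PCR and sequenced. Relative association constants were obtained from read-count changes of each RNA species versus the control reaction and normalised to the cognate motif.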
For the molecule B1, the binding signal was 0.00403 KA relative to UGCAUGU.

With B2, the binding signal is 0.00195 KA relative to UGCAUGU.

As to B3, the binding signal is 0.0183 KA relative to UGCAUGU.

In the case of B4, the binding signal is 0.00189 KA relative to UGCAUGU.

Regarding B5, the binding signal was 0.00607 KA relative to UGCAUGU.

As for B6, the binding signal is 0.0194 KA relative to UGCAUGU.

For B7, the binding signal is 0.00644 KA relative to UGCAUGU.

With B8, the binding signal was 0.013 KA relative to UGCAUGU.

Regarding B9, the binding signal was 0.00199 KA relative to UGCAUGU.

In the case of B10, the binding signal was 0.00772 KA relative to UGCAUGU.

Turning to B11, the binding signal was 0.00242 KA relative to UGCAUGU.

For B12, the binding signal was 0.00402 KA relative to UGCAUGU.

As to B13, the binding signal is 0.000331 KA relative to UGCAUGU.

As to B14, the binding signal is 0.00232 KA relative to UGCAUGU.

Regarding B15, the binding signal was 0.0129 KA relative to UGCAUGU.

Take B16: the binding signal was 0.00117 KA relative to UGCAUGU.

On to B17, for which the binding signal was 0.0157 KA relative to UGCAUGU.

For B18, the binding signal was 0.00917 KA relative to UGCAUGU.

In the case of B19, the binding signal is 0.0154 KA relative to UGCAUGU.

B20: the binding signal is 0.0218 KA relative to UGCAUGU.
